Substitutions are numbered along the chain they refer to; changes in the protein carry UniProt numbers. Some of the results follow.

First the molecules themselves.
B1: UGAUGAA (DNA:RNA)
RNA: GGGAGACCGGAAUUCAGAUUGUCCUGAUGAAUUAAAUCCCGUCGUAGCCACCA
DNA 1: CAATCTGAATTCCGGTCTCCC
DNA 2: TGGTGGCTACGACGGGATT
B2: UCAUCGU (DNA:RNA)
RNA: B1 RNA with G26C, G29C, A30G, A31U
DNA 1: CAATCTGAATTCCGGTCTCCC
DNA 2: TGGTGGCTACGACGGGATT
B3: AUCACCA (DNA:RNA)
RNA: B1 RNA with U25A, G26U, A27C, U28A, G29C, A30C
DNA 1: CAATCTGAATTCCGGTCTCCC
DNA 2: TGGTGGCTACGACGGGATT
B4: AGCCCUU (DNA:RNA)
RNA: B1 RNA with U25A, A27C, U28C, G29C, A30U, A31U
DNA 1: CAATCTGAATTCCGGTCTCCC
DNA 2: TGGTGGCTACGACGGGATT
B5: GUGCAAG (DNA:RNA)
RNA: B1 RNA with U25G, G26U, A27G, U28C, G29A, A31G
DNA 1: CAATCTGAATTCCGGTCTCCC
DNA 2: TGGTGGCTACGACGGGATT
B6: CGGGGAU (DNA:RNA)
RNA: B1 RNA with U25C, A27G, U28G, A31U
DNA 1: CAATCTGAATTCCGGTCTCCC
DNA 2: TGGTGGCTACGACGGGATT
B7: UCUCAGU (DNA:RNA)
RNA: B1 RNA with G26C, A27U, U28C, G29A, A30G, A31U
DNA 1: CAATCTGAATTCCGGTCTCCC
DNA 2: TGGTGGCTACGACGGGATT
B8: UCGUCCA (DNA:RNA)
RNA: B1 RNA with G26C, A27G, G29C, A30C
DNA 1: CAATCTGAATTCCGGTCTCCC
DNA 2: TGGTGGCTACGACGGGATT
B9: GCAUCUA (DNA:RNA)
RNA: B1 RNA with U25G, G26C, G29C, A30U
DNA 1: CAATCTGAATTCCGGTCTCCC
DNA 2: TGGTGGCTACGACGGGATT
B10: CACAUGC (DNA:RNA)
RNA: GGGAGACCGGAAUUCAGAUUGUCCCACAUGCUUAAAUCCCGUCGUAGCCACCA
DNA 1: CAATCTGAATTCCGGTCTCCC
DNA 2: TGGTGGCTACGACGGGATT
B11: UGCGUGC (DNA:RNA)
RNA: B10 RNA with C25U, A26G, A28G
DNA 1: CAATCTGAATTCCGGTCTCCC
DNA 2: TGGTGGCTACGACGGGATT
B12: GAUCGUC (DNA:RNA)
RNA: B10 RNA with C25G, C27U, A28C, U29G, G30U
DNA 1: CAATCTGAATTCCGGTCTCCC
DNA 2: TGGTGGCTACGACGGGATT
B13: CAGCAAA (DNA:RNA)
RNA: B10 RNA with C27G, A28C, U29A, G30A, C31A
DNA 1: CAATCTGAATTCCGGTCTCCC
DNA 2: TGGTGGCTACGACGGGATT
B14: GUAACAG (DNA:RNA)
RNA: B1 RNA with U25G, G26U, U28A, G29C, A31G
DNA 1: CAATCTGAATTCCGGTCTCCC
DNA 2: TGGTGGCTACGACGGGATT
B15: UGUCAGU (DNA:RNA)
RNA: B1 RNA with A27U, U28C, G29A, A30G, A31U
DNA 1: CAATCTGAATTCCGGTCTCCC
DNA 2: TGGTGGCTACGACGGGATT
B16: AAGCUGU (DNA:RNA)
RNA: B10 RNA with C25A, C27G, A28C, C31U
DNA 1: CAATCTGAATTCCGGTCTCCC
DNA 2: TGGTGGCTACGACGGGATT
B17: UCAGACA (DNA:RNA)
RNA: B1 RNA with G26C, U28G, G29A, A30C
DNA 1: CAATCTGAATTCCGGTCTCCC
DNA 2: TGGTGGCTACGACGGGATT
B18: CCAUCAC (DNA:RNA)
RNA: B1 RNA with U25C, G26C, G29C, A31C
DNA 1: CAATCTGAATTCCGGTCTCCC
DNA 2: TGGTGGCTACGACGGGATT
B19: GGUGGAC (DNA:RNA)
RNA: B1 RNA with U25G, A27U, U28G, A31C
DNA 1: CAATCTGAATTCCGGTCTCCC
DNA 2: TGGTGGCTACGACGGGATT
B20: UAGGCGC (DNA:RNA)
RNA: B10 RNA with C25U, C27G, A28G, U29C
DNA 1: CAATCTGAATTCCGGTCTCCC
DNA 2: TGGTGGCTACGACGGGATT
B21: ACGAACU (DNA:RNA)
RNA: B10 RNA with C25A, A26C, C27G, U29A, G30C, C31U
DNA 1: CAATCTGAATTCCGGTCTCCC
DNA 2: TGGTGGCTACGACGGGATT
B22: AUAGCGU (DNA:RNA)
RNA: B10 RNA with C25A, A26U, C27A, A28G, U29C, C31U
DNA 1: CAATCTGAATTCCGGTCTCCC
DNA 2: TGGTGGCTACGACGGGATT
B23: GCGGGAG (DNA:RNA)
RNA: B1 RNA with U25G, G26C, A27G, U28G, A31G
DNA 1: CAATCTGAATTCCGGTCTCCC
DNA 2: TGGTGGCTACGACGGGATT
B24: CCUGCUG (DNA:RNA)
RNA: B10 RNA with A26C, C27U, A28G, U29C, G30U, C31G
DNA 1: CAATCTGAATTCCGGTCTCCC
DNA 2: TGGTGGCTACGACGGGATT
B25: CCUCUGA (DNA:RNA)
RNA: B10 RNA with A26C, C27U, A28C, C31A
DNA 1: CAATCTGAATTCCGGTCTCCC
DNA 2: TGGTGGCTACGACGGGATT
B26: UUAUGGU (DNA:RNA)
RNA: B1 RNA with G26U, A30G, A31U
DNA 1: CAATCTGAATTCCGGTCTCCC
DNA 2: TGGTGGCTACGACGGGATT
B27: ACGGGGU (DNA:RNA)
RNA: B10 RNA with C25A, A26C, C27G, A28G, U29G, C31U
DNA 1: CAATCTGAATTCCGGTCTCCC
DNA 2: TGGTGGCTACGACGGGATT
B28: CGGGGUU (DNA:RNA)
RNA: B1 RNA with U25C, A27G, U28G, A30U, A31U
DNA 1: CAATCTGAATTCCGGTCTCCC
DNA 2: TGGTGGCTACGACGGGATT
B29: CGAUGUG (DNA:RNA)
RNA: B1 RNA with U25C, A30U, A31G
DNA 1: CAATCTGAATTCCGGTCTCCC
DNA 2: TGGTGGCTACGACGGGATT
B30: AAGUUUC (DNA:RNA)
RNA: B10 RNA with C25A, C27G, A28U, G30U
DNA 1: CAATCTGAATTCCGGTCTCCC
DNA 2: TGGTGGCTACGACGGGATT
B31: UUAAAGG (DNA:RNA)
RNA: B10 RNA with C25U, A26U, C27A, U29A, C31G
DNA 1: CAATCTGAATTCCGGTCTCCC
DNA 2: TGGTGGCTACGACGGGATT

In this test the target is T1, RBFOX1 RRM (Homo sapiens, UniProt Q9NWB1 109-208).
T1 sequence: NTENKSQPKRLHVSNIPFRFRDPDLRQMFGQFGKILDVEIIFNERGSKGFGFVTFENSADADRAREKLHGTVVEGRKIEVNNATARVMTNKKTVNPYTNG
Kind of test: EMSA; HiTS-Eq, 1 nM pool, 10 min; buffer printed only for the single-RNA assays: 10 mM Tris pH 7.5, 150 mM NaCl, 3.4 mM EDTA, 0.001% NP-40, 30 C. As to conditions: tags: His6 N-terminal (pET28a); label: 5' 32P. An outline of the steps:
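Purified RbFox RRM, wild type or mutant, was incubated for 10 min in 50 µL with 1 nM of a 5′-radiolabelled RNA pool carrying 7 randomized nucleotides, whose flanks were annealed to DNA oligonucleotides, over a series of increasing protein concentrations. Unbound RNA was resolved on 8% native PAGE, cut out, reverse-transcribed, barcoded by PCR and sequenced on an Illumina HiSeq 2500. Relative association constants were derived from changes in read counts for each RNA species versus the control reaction and normalised to the cognate motif.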
(Mobility shift assays separate free from complexed probe on a gel.)
Turning to B1, the binding signal was 0.0191 KA relative to UGCAUGU.
For B2 the value was 0.0124 KA relative to UGCAUGU.
Regarding B3, the binding signal is 0.00177 KA relative to UGCAUGU.
For B4 the value was 0.00485 KA relative to UGCAUGU; for B5, 0.0274 KA relative to UGCAUGU; for B6, 0.0184 KA relative to UGCAUGU.
For B7 the value was 0.0101 KA relative to UGCAUGU; for B8, 0.0076 KA relative to UGCAUGU; for B9, 0.0126 KA relative to UGCAUGU.
In the case of B10, the binding signal is 0.00424 KA relative to UGCAUGU.
The value for B11 was 0.0465 KA relative to UGCAUGU; that for B12 was 0.0199 KA relative to UGCAUGU; that for B13 was 0.00133 KA relative to UGCAUGU.
Take B14: the binding signal was 0.0117 KA relative to UGCAUGU.
With B15, the binding signal was 0.0169 KA relative to UGCAUGU.
With B16, the binding signal is 0.00977 KA relative to UGCAUGU.
The value for B17 was 0.000675 KA relative to UGCAUGU; that for B18 was 0.0034 KA relative to UGCAUGU.
Turning to B19, the binding signal is 0.00935 KA relative to UGCAUGU.
For B20 the value was 0.0153 KA relative to UGCAUGU.
As for B21, the binding signal is 0.00476 KA relative to UGCAUGU.
For B22, the binding signal was 0.00628 KA relative to UGCAUGU.
Regarding B23, the binding signal was 0.0158 KA relative to UGCAUGU.
The value for B24 was 0.0192 KA relative to UGCAUGU.
The value for B25 was 0.0177 KA relative to UGCAUGU; that for B26 was 0.0118 KA relative to UGCAUGU; that for B27 was 0.0238 KA relative to UGCAUGU.
Turning to B28, the binding signal is 0.0339 KA relative to UGCAUGU.
The value for B29 was 0.015 KA relative to UGCAUGU; that for B30 was 0.0115 KA relative to UGCAUGU.
The value for B31 was 0.00496 KA relative to UGCAUGU.

Source of the values: publication PMC9911399, “Two distinct binding modes provide the RNA-binding protein RbFox with extraordinary sequence specificity”.
